Publication PMC4336329 (PLoS ONE, 2015)
Out of some 310,000 compounds screened, about 2,200 (0.71%) showed an effect of 50% or more. Effects have a minus sign here. This is one part of the list.

Each compound was assayed against human ether-à-go-go-related gene (hERG) potassium channel (human, UniProt Q12809) (assay: primary screen, population patch clamp on CHO cells stably expressing hERG).
Sequence of human ether-à-go-go-related gene (hERG) potassium channel (Q12809 whole entry, looked up): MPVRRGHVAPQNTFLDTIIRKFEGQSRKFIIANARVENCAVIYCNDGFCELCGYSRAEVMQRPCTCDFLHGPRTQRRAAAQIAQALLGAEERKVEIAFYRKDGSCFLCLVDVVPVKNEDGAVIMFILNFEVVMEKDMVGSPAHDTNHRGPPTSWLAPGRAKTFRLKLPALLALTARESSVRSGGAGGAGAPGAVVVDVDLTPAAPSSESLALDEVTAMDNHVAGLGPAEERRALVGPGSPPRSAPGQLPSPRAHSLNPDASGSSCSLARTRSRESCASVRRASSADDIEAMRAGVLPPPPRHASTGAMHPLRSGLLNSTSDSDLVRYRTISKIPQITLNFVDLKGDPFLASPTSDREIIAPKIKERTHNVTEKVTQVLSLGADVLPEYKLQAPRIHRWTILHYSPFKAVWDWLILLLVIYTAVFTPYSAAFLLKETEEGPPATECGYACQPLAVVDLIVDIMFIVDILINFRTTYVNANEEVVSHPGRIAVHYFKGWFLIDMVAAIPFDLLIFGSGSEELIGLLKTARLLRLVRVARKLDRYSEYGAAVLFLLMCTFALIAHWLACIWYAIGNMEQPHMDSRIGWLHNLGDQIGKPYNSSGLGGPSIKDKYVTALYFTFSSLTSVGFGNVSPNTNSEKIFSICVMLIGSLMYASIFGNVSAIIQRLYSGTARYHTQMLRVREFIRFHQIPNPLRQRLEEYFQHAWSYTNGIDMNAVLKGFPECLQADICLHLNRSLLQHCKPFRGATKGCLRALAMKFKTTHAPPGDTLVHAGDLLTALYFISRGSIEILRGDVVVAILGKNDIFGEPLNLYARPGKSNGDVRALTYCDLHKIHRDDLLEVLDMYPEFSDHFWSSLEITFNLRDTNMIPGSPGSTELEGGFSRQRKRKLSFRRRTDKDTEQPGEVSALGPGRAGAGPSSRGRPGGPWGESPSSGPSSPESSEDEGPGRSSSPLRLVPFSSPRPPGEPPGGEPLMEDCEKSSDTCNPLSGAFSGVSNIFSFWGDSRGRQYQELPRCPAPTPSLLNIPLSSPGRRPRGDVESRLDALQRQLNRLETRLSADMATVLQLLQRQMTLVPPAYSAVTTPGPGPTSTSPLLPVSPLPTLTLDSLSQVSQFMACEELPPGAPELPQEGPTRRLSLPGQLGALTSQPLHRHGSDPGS

SMILES	hERG current change (%, negative = inhibition) at 1uM
COC(=O)c1c(C)oc(C)c1S(=O)(=O)N(Cc1ccccc1)C(C)C	18.9%
CC1CC(C)CN(C(=O)C2CCN(S(=O)(=O)c3c(Cl)cccc3Cl)CC2)C1 (stereo not shown)	7.94%
COc1cc2c(cc1OC)-c1cc(Nc3ccc(C(=O)O)cc3)nc(=O)n1CC2	8.27%
CCC(C)OC(=O)C[N+](C)(C)CCOC1CC2CCC1(C)C2(C)C.[Cl-] (stereo not shown)	10.1%
CCOc1ccc(N(CC(=O)Nc2cc(C)ccc2C)S(=O)(=O)c2c(C)[nH]c(=O)[nH]c2=O)cc1	-3.81%
COc1cccc(C(=O)NCC(=O)OCC(=O)Nc2cc(OC)c([N+](=O)[O-])cc2C)c1	9.21%
O=C(c1ccco1)N1CCN(Cc2nnc(-c3cccc(Cl)c3)o2)CC1	-13.8%
CS(=O)(=O)N(CC(=O)N1CCCC1)Cc1ccc(F)cc1	17.8%
C=C(C)CNC(=S)NNC(=O)CCn1c2cc(Cl)ccc2c2ccc(Cl)cc21	13%
CCCCn1c(N)c(N(CCC(C)C)C(=O)c2cccc(S(=O)(=O)N3CCN(C)CC3)c2)c(=O)[nH]c1=O	7.75%
CCc1c(C)nc(SC)n(CC#N)c1=O	5.77%
Cc1cccc(N2CCN(S(=O)(=O)c3ccc4[nH]c(=O)ccc4c3)CC2)c1C	9.28%
O=C1N(Cc2cccnc2)C[C@@H]2C[C@@H](c3cccc(OC4CCCC4)c3)N3CCC[C@@]123	-53.3%
Cc1c(Cl)cccc1NC(=O)CC1SCCNC1=O (stereo not shown)	1.6%
Clc1cccc(-c2noc3ncnc(Nc4ccc5c(c4)OCO5)c23)c1	17.3%
COc1ccc(/C=N/N2CCOCC2)cc1Cn1nc(C)c([N+](=O)[O-])c1C	7.31%
COc1cc(C(=O)NCc2nnc(SCC(=O)N3CCCCCC3)o2)cc(OC)c1OC	11.6%
O=C(/C=C/Nc1ccccc1C(=O)O)c1cccs1	14.3%
O=C(N/N=C/c1c(O)n(CCc2ccccc2)c(=O)[nH]c1=O)c1ccccc1O	-4.33%
CCOC(=O)Cc1csc(NC(=O)C2CCCN(S(=O)(=O)c3cnc[nH]3)C2)n1 (stereo not shown)	6.87%
O=C(COC(=O)c1ccccn1)NC(=O)c1ccccc1	-5.45%
O=c1[nH]c(=O)n(C(c2ccccc2)c2ccccc2)cc1Br	1.23%

SMILES	hERG current change (%, negative = inhibition) at 1uM
O=C(NCC(=O)N1CCN(c2ccccn2)CC1)c1ccc(Br)o1	9.49%
CCOC(=O)c1c(NC(=O)CSc2nnnn2-c2ccc3c(c2)OCCO3)sc(C)c1C	13.5%
CCC(CC)NC(=O)CN(c1ccccc1OC)S(=O)(=O)c1cccs1	1.24%
COc1ccccc1CNC(=O)C1Cc2cc(S(=O)(=O)N3CCCCC3)ccc2N1C(C)=O (stereo not shown)	4.52%
Cc1cc(C)c(S(=O)(=O)NCC(=O)NCc2ccccn2)c(C)c1	7.06%
COc1ccc(C2/C(=C(/O)c3ccccc3)C(=O)C(=O)N2C)cc1OC (stereo not shown)	1.22%
Cc1nc2[nH]c(=S)[nH]c2cc1Br	9.44%
Cc1[nH][nH]c(=O)c1C(c1ccc(O)c(Br)c1)c1c(C)[nH][nH]c1=O	15.1%
CS(=O)(=O)N1CCC(C(=O)Nc2ccccc2Cl)CC1	17.3%
Cc1ccc2c(c1)N(CC(=O)NCCc1c[nH]c3ccccc13)C(=O)CO2	-4.85%
COc1ccc(Cl)cc1-c1nc(N)nc(NC2CCCCC2)n1	20.3%
Cc1ccc[n+](CC(=O)c2cc3ccccc3oc2=O)c1.[Br-]	-3.14%
CCc1ccc(-c2csc3ncn(CC)c(=O)c23)cc1	2.91%
CCOc1ccc(NC(=O)Nc2ccc3c(c2)CCC3)cc1	-9.68%
COc1ccc(-c2csc(Nc3ccccc3)[n+]2CC(O)c2ccc([N+](=O)[O-])cc2)cc1.[Br-] (stereo not shown)	15.1%
COc1ccc(C(=O)NCC(c2cccnc2)N2CCN(c3ccccc3OC)CC2)cc1OC (stereo not shown)	-3.19%
N#CC1(NC(=O)COC(=O)c2nc(Cl)c(Cl)c(N)c2Cl)CCCCC1	-4.88%
CCOC(=O)C(CC)(CC)C(=O)/C=C/c1cccc(Br)c1	12.4%
CCC(=O)c1c(NC(CC)CO)cc(C)oc1=O (stereo not shown)	-0.845%
COc1ccc2[nH]c(=O)c(CN(Cc3ccccc3)Cc3nnnn3CC3CCCO3)cc2c1 (stereo not shown)	-5.15%
CSc1ccccc1NC(=O)Cc1ccccc1	7.82%
